The other results are listed elsewhere or left out. Shown are side measurements of this screen, not its main read-out; they come without a call. The list favours compounds with an active or inconclusive main result. The note in brackets gives the kind of curve behind each potency; many fits are weak.

Consider ten compounds from PubChem BioAssay (NCATS).
Tags describe the fitted curve by direction and shape.

The assay concerns the target Histamine N-methyltransferase (Homo sapiens) (UniProt P50135). Nature of the assay: Confirmatory Screen for Target Class Profiling of Small Molecule Inhibitors of Methyltransferases (AID 1745852).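 Further: inhibitor potency for blocking SAH production.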 The following applies: MTase-Glo luminescence, SAH detection, recombinant enzyme; measured here: HNMT inhibition potency.
UniProt P50135, sequence (P50135 whole entry, looked up): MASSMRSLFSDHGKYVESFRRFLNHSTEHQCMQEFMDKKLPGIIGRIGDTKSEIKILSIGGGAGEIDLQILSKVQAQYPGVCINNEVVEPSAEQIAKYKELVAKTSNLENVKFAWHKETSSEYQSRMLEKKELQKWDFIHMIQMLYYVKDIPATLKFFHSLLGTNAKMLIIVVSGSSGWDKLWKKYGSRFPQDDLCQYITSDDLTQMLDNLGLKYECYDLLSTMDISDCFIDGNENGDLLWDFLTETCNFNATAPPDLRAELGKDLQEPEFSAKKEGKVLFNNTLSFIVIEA
`Fc1cccc(-c2nnn3c2nc(NCCc2ccccc2)c2ccccc23)c1`: the IC50 was 19.2 µM [falling, partial curve].
The value for `CCCN1CCn2c3c(c4cc(OC)ccc42)CCN=C31` was 19.2 µM [falling, partial curve].
As for `Cc1ccc(Cn2c(=O)c3ccccc3n3c(CCC(=O)NCCN4CCCC4)nnc23)cc1`, the figure is 6.81 µM [falling, full curve]; as for `CCN1CCN(c2nc3c(S(=O)(=O)c4ccc(C)cc4)nnn3c3ccccc23)CC1`, 13.6 µM [falling, partial curve]; as for `O=C(CCc1nnc2n(CCc3ccccc3)c(=O)c3ccccc3n12)NCCCN1CCCCC1`, 7.64 µM [falling, partial curve].
As for `CC1CCN(CCCNC(=O)CCc2nnc3n(Cc4ccc(Cl)cc4)c(=O)c4ccccc4n23)CC1`, the IC50 was 5.41 µM [falling, full curve].
The value for `C=CC[N+]1([C@H]2C[C@H]3[C@@H]4CC[C@H]5C[C@H](OC(C)=O)[C@@H](N6CCCCC6)C[C@]5(C)[C@H]4CC[C@]3(C)[C@H]2OC(=O)CC)CCCCC1` was 15.2 µM [falling, partial curve]; that for `COc1cccc(-c2ccccc2NC(=O)C2CCN(CC=C(C)C)CC2)c1` was 19.2 µM [falling, partial curve, poor fit].
With `COc1ccc(-c2cc(C(=O)NCc3cccnc3)c3c(c2)N(C)CCO3)cc1OC`, the IC50 was 31.2 µM [falling, partial curve].
As for `CC1CCN(CCCNC(=O)CCc2nnc3n(Cc4ccc(F)cc4)c(=O)c4ccccc4n23)CC1`, the IC50 was 7.64 µM [falling, partial curve].

As a reminder, the IC50 is the midpoint of a concentration-inhibition curve.
